Results on one molecule are retold here after patent publication US20040126856A1 (published 2004).

Assay [1] addresses T1, A2 subunit of factor VIIIa (human, UniProt P00451 392-759).
T1 construct: also called isolated A2 subunit
T1 sequence: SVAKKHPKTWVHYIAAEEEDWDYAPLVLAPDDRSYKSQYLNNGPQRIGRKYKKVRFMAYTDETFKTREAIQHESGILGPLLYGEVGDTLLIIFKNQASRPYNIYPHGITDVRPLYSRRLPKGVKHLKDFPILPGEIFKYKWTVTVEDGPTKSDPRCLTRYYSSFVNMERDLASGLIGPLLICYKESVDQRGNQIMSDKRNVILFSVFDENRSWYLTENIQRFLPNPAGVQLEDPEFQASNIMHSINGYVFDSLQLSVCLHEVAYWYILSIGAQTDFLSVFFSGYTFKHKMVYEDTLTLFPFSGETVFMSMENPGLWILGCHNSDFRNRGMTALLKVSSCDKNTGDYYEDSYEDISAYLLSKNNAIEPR
The experiment in a line: calculated from apparent KdA2 (RT ln Kd, 298 K).

In assay [2] the target is T1, A2 subunit of factor VIIIa. Briefly: apparent KdA2 against that of WT.

B1: dEGR-IXaR333Q (factor IXaR333Q inactivated with dansyl-Glu-Gly-Arg-chloromethyl ketone) (enzyme)
light: YNSGKLEEFVQGNLERECMEEKCSFEEAREVFENTERTTEFWKQYVDGDQCESNPCLNGGSCKDDINSYECWCPFGFEGKNCELDVTCNIKNGRCEQFCKNSADNKVVCSCTEGYRLAENQKSCEPAVPFPCGRVSVSQTSKLT
heavy: [omitted - about 250 residues with changes]
modifications: active site inactivated with dansyl-Glu-Gly-Arg-chloromethyl ketone (dEGR-ck); gamma-carboxyglutamic acid residues in the Gla domain (normal Gla content)
For B1, in assay [1], the “Gibbs free energy (delta G° A2)” value was 7.82 kcal/mol. The “fold-change in apparent Kd (mutant/WT)” value in assay [2] is 18 fold.
